According to the supplement of paper PMC9151546:
Single values are uncertain, as repeats are few or missing.

Legend:
CHO-K1 [1] = test: micronucleus frequency (% of nucleated events); higher = more micronuclei (genotoxic)
CHO-K1 [2] = test: hypodiploid nuclei frequency (% of nucleated events); higher = more hypodiploid events (aneugenic)
CHO-K1 [3] = test: relative survival (nuclei to bead ratio vs DMSO control) (% of vehicle control); higher = more surviving cells
[4] = concentration: 4.5 (µM), S9 metabolic activation: with S9, exposure time: 3-4 hours
[5] = concentration: 4.5 (µM), S9 metabolic activation: without S9, exposure time: 24 hours
[6] = concentration: 5.63 (µM), S9 metabolic activation: with S9, exposure time: 3-4 hours
[7] = concentration: 5.63 (µM), S9 metabolic activation: without S9, exposure time: 24 hours
[8] = concentration: 7.04 (µM), S9 metabolic activation: with S9, exposure time: 3-4 hours
[9] = concentration: 7.04 (µM), S9 metabolic activation: without S9, exposure time: 24 hours
[10] = concentration: 8.8 (µM), S9 metabolic activation: with S9, exposure time: 3-4 hours
[11] = concentration: 8.8 (µM), S9 metabolic activation: without S9, exposure time: 24 hours
[12] = concentration: 11 (µM), S9 metabolic activation: with S9, exposure time: 3-4 hours
[13] = concentration: 11 (µM), S9 metabolic activation: without S9, exposure time: 24 hours
[14] = concentration: 13.7 (µM), S9 metabolic activation: with S9, exposure time: 3-4 hours
[15] = concentration: 17.2 (µM), S9 metabolic activation: with S9, exposure time: 3-4 hours
[16] = concentration: 21.5 (µM), S9 metabolic activation: with S9, exposure time: 3-4 hours
[17] = concentration: 26.8 (µM), S9 metabolic activation: with S9, exposure time: 3-4 hours
[18] = concentration: 33.6 (µM), S9 metabolic activation: with S9, exposure time: 3-4 hours
[19] = concentration: 41.9 (µM), S9 metabolic activation: with S9, exposure time: 3-4 hours
[20] = concentration: 52.4 (µM), S9 metabolic activation: with S9, exposure time: 3-4 hours
[21] = concentration: 65.5 (µM), S9 metabolic activation: with S9, exposure time: 3-4 hours
[22] = concentration: 81.9 (µM), S9 metabolic activation: without S9, exposure time: 24 hours
[23] = concentration: 102 (µM), S9 metabolic activation: without S9, exposure time: 24 hours
[24] = concentration: 200 (µM), S9 metabolic activation: with S9, exposure time: 3-4 hours
[25] = concentration: 200 (µM), S9 metabolic activation: without S9, exposure time: 24 hours
[26] = concentration: 13.7 (µM), S9 metabolic activation: without S9, exposure time: 24 hours
[27] = concentration: 17.2 (µM), S9 metabolic activation: without S9, exposure time: 24 hours
[28] = concentration: 21.5 (µM), S9 metabolic activation: without S9, exposure time: 24 hours
[29] = concentration: 26.8 (µM), S9 metabolic activation: without S9, exposure time: 24 hours
[30] = concentration: 33.6 (µM), S9 metabolic activation: without S9, exposure time: 24 hours
[31] = concentration: 41.9 (µM), S9 metabolic activation: without S9, exposure time: 24 hours
[32] = concentration: 81.9 (µM), S9 metabolic activation: with S9, exposure time: 3-4 hours
[33] = concentration: 102 (µM), S9 metabolic activation: with S9, exposure time: 3-4 hours
[34] = concentration: 128 (µM), S9 metabolic activation: with S9, exposure time: 3-4 hours
[35] = concentration: 160 (µM), S9 metabolic activation: with S9, exposure time: 3-4 hours
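For hypodiploid nuclei frequency (% of nucleated events) in this document: hypodiploid nuclei gated on a flow cytometer with 488 nm excitation after SYTOX Green staining, cultures at 37 °C, positive controls vinblastine without S9 and cyclophosphamide with S9.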
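For micronucleus frequency (% of nucleated events) in this document: cells lysed with nuclei stained by SYTOX Green, then micronucleus-gated events counted against nucleated events by flow cytometry with 488 nm excitation.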
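For relative survival (nuclei to bead ratio vs DMSO control) in this document: Lysed-cell nuclei stained with SYTOX Green and counted against counting beads by flow cytometry at 488 nm excitation, with vinblastine (no S9) and cyclophosphamide (plus S9) as positive controls.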

SMILES: ClC1=C(Cl)C(Cl)(Cl)C(Cl)=C1Cl [Hexachlorocyclopentadiene]
- micronucleus frequency (CHO-K1 [1]; [4]): 3.1%
- micronucleus frequency (CHO-K1 [1]; [5]): 2.12%
- micronucleus frequency (CHO-K1 [1]; [6]): 1.94%
- micronucleus frequency (CHO-K1 [1]; [7]): 2.52%
- micronucleus frequency (CHO-K1 [1]; [8]): 2.82%
- micronucleus frequency (CHO-K1 [1]; [9]): 2.62%
- micronucleus frequency (CHO-K1 [1]; [10]): 2.6%
- micronucleus frequency (CHO-K1 [1]; [11]): 7.64%
- micronucleus frequency (CHO-K1 [1]; [12]): 2.6%
- micronucleus frequency (CHO-K1 [1]; [13]): 32.9%
- micronucleus frequency (CHO-K1 [1]; [14]): 2.46%
- micronucleus frequency (CHO-K1 [1]; [15]): 2.1%
- micronucleus frequency (CHO-K1 [1]; [16]): 2.18%
- micronucleus frequency (CHO-K1 [1]; [17]): 3.82%
- micronucleus frequency (CHO-K1 [1]; [18]): 5.38%
- micronucleus frequency (CHO-K1 [1]; [19]): 9.34%
- micronucleus frequency (CHO-K1 [1]; [20]): 21.6%
- hypodiploid nuclei frequency (CHO-K1 [2]; [4]): 0.48%
- hypodiploid nuclei frequency (CHO-K1 [2]; [5]): 0.34%
- hypodiploid nuclei frequency (CHO-K1 [2]; [6]): 0.22%
- hypodiploid nuclei frequency (CHO-K1 [2]; [7]): 0.52%
- hypodiploid nuclei frequency (CHO-K1 [2]; [8]): 0.5%
- hypodiploid nuclei frequency (CHO-K1 [2]; [9]): 0.44%
- hypodiploid nuclei frequency (CHO-K1 [2]; [10]): 0.4%
- hypodiploid nuclei frequency (CHO-K1 [2]; [11]): 0.48%
- hypodiploid nuclei frequency (CHO-K1 [2]; [12]): 0.4%
- hypodiploid nuclei frequency (CHO-K1 [2]; [13]): 0.76%
- hypodiploid nuclei frequency (CHO-K1 [2]; [14]): 0.4%
- hypodiploid nuclei frequency (CHO-K1 [2]; [15]): 0.36%
- hypodiploid nuclei frequency (CHO-K1 [2]; [16]): 0.2%
- hypodiploid nuclei frequency (CHO-K1 [2]; [17]): 0.74%
- hypodiploid nuclei frequency (CHO-K1 [2]; [18]): 0.74%
- hypodiploid nuclei frequency (CHO-K1 [2]; [19]): 1.16%
- hypodiploid nuclei frequency (CHO-K1 [2]; [20]): 1.1%
- relative survival (CHO-K1 [3]; [4]): 58.2
- relative survival (CHO-K1 [3]; [5]): 94.3
- relative survival (CHO-K1 [3]; [6]): 68.1
- relative survival (CHO-K1 [3]; [7]): 84.3
- relative survival (CHO-K1 [3]; [8]): 64.2
- relative survival (CHO-K1 [3]; [9]): 70.3
- relative survival (CHO-K1 [3]; [10]): 62.2
- relative survival (CHO-K1 [3]; [11]): 66
- relative survival (CHO-K1 [3]; [12]): 82.1
- relative survival (CHO-K1 [3]; [13]): 50.8
- relative survival (CHO-K1 [3]; [14]): 59.2
- relative survival (CHO-K1 [3]; [15]): 85.4
- relative survival (CHO-K1 [3]; [16]): 95.7
- relative survival (CHO-K1 [3]; [17]): 65.5
- relative survival (CHO-K1 [3]; [18]): 68.5
- relative survival (CHO-K1 [3]; [19]): 54.8
- relative survival (CHO-K1 [3]; [20]): 40.9
- relative survival (CHO-K1 [3]; [21]): 25.1
- relative survival (CHO-K1 [3]; [22]): 0.02
- relative survival (CHO-K1 [3]; [23]): 0.06
- relative survival (CHO-K1 [3]; [24]): 0.03
- relative survival (CHO-K1 [3]; [25]): 0.06

SMILES: Oc1ccc(O)cc1 [Hydroquinone]
- micronucleus frequency (CHO-K1 [1]; [4]): 1.2%
- micronucleus frequency (CHO-K1 [1]; [5]): 1.64%
- micronucleus frequency (CHO-K1 [1]; [6]): 1.68%
- micronucleus frequency (CHO-K1 [1]; [7]): 1.26%
- micronucleus frequency (CHO-K1 [1]; [8]): 1.06%
- micronucleus frequency (CHO-K1 [1]; [9]): 1.5%
- micronucleus frequency (CHO-K1 [1]; [10]): 0.98%
- micronucleus frequency (CHO-K1 [1]; [11]): 1.26%
- micronucleus frequency (CHO-K1 [1]; [12]): 0.96%
- micronucleus frequency (CHO-K1 [1]; [13]): 1.48%
- micronucleus frequency (CHO-K1 [1]; [14]): 1.02%
- micronucleus frequency (CHO-K1 [1]; [26]): 1.74%
- micronucleus frequency (CHO-K1 [1]; [15]): 0.76%
- micronucleus frequency (CHO-K1 [1]; [27]): 2.2%
- micronucleus frequency (CHO-K1 [1]; [16]): 1%
- micronucleus frequency (CHO-K1 [1]; [28]): 1.74%
- micronucleus frequency (CHO-K1 [1]; [17]): 0.94%
- micronucleus frequency (CHO-K1 [1]; [29]): 2.34%
- micronucleus frequency (CHO-K1 [1]; [18]): 0.82%
- micronucleus frequency (CHO-K1 [1]; [30]): 3.5%
- micronucleus frequency (CHO-K1 [1]; [19]): 1.16%
- micronucleus frequency (CHO-K1 [1]; [31]): 3.64%
- micronucleus frequency (CHO-K1 [1]; [20]): 1.26%
- micronucleus frequency (CHO-K1 [1]; [21]): 1.6%
- micronucleus frequency (CHO-K1 [1]; [32]): 1.72%
- micronucleus frequency (CHO-K1 [1]; [33]): 2%
- micronucleus frequency (CHO-K1 [1]; [34]): 2.5%
- micronucleus frequency (CHO-K1 [1]; [35]): 3.66%
- micronucleus frequency (CHO-K1 [1]; [24]): 5.44%
- hypodiploid nuclei frequency (CHO-K1 [2]; [4]): 0.44%
- hypodiploid nuclei frequency (CHO-K1 [2]; [5]): 0.68%
- hypodiploid nuclei frequency (CHO-K1 [2]; [6]): 0.34%
- hypodiploid nuclei frequency (CHO-K1 [2]; [7]): 0.74%
- hypodiploid nuclei frequency (CHO-K1 [2]; [8]): 0.38%
- hypodiploid nuclei frequency (CHO-K1 [2]; [9]): 0.72%
- hypodiploid nuclei frequency (CHO-K1 [2]; [10]): 0.56%
- hypodiploid nuclei frequency (CHO-K1 [2]; [11]): 0.6%
- hypodiploid nuclei frequency (CHO-K1 [2]; [12]): 0.6%
- hypodiploid nuclei frequency (CHO-K1 [2]; [13]): 0.84%
- hypodiploid nuclei frequency (CHO-K1 [2]; [14]): 0.24%
- hypodiploid nuclei frequency (CHO-K1 [2]; [26]): 1.1%
- hypodiploid nuclei frequency (CHO-K1 [2]; [15]): 0.38%
- hypodiploid nuclei frequency (CHO-K1 [2]; [27]): 3.1%
- hypodiploid nuclei frequency (CHO-K1 [2]; [16]): 0.44%
- hypodiploid nuclei frequency (CHO-K1 [2]; [28]): 1.56%
- hypodiploid nuclei frequency (CHO-K1 [2]; [17]): 0.28%
- hypodiploid nuclei frequency (CHO-K1 [2]; [29]): 0.86%
- hypodiploid nuclei frequency (CHO-K1 [2]; [18]): 0.44%
- hypodiploid nuclei frequency (CHO-K1 [2]; [30]): 1.48%
- hypodiploid nuclei frequency (CHO-K1 [2]; [19]): 0.4%
- hypodiploid nuclei frequency (CHO-K1 [2]; [31]): 2.24%
- hypodiploid nuclei frequency (CHO-K1 [2]; [20]): 0.34%
- hypodiploid nuclei frequency (CHO-K1 [2]; [21]): 0.4%
- hypodiploid nuclei frequency (CHO-K1 [2]; [32]): 0.5%
- hypodiploid nuclei frequency (CHO-K1 [2]; [33]): 0.92%
- hypodiploid nuclei frequency (CHO-K1 [2]; [34]): 0.54%
- hypodiploid nuclei frequency (CHO-K1 [2]; [35]): 0.84%
- hypodiploid nuclei frequency (CHO-K1 [2]; [24]): 0.9%
- relative survival (CHO-K1 [3]; [4]): 96.9
- relative survival (CHO-K1 [3]; [5]): 101
- relative survival (CHO-K1 [3]; [6]): 90.5
- relative survival (CHO-K1 [3]; [7]): 99
- relative survival (CHO-K1 [3]; [8]): 90.2
- relative survival (CHO-K1 [3]; [9]): 90.6
- relative survival (CHO-K1 [3]; [10]): 90
- relative survival (CHO-K1 [3]; [11]): 99.4
- relative survival (CHO-K1 [3]; [12]): 96.3
- relative survival (CHO-K1 [3]; [13]): 106
- relative survival (CHO-K1 [3]; [14]): 91.5
- relative survival (CHO-K1 [3]; [26]): 83
- relative survival (CHO-K1 [3]; [15]): 89.2
- relative survival (CHO-K1 [3]; [27]): 83.2
- relative survival (CHO-K1 [3]; [16]): 100
- relative survival (CHO-K1 [3]; [28]): 124
- relative survival (CHO-K1 [3]; [17]): 113
- relative survival (CHO-K1 [3]; [29]): 79.2
- relative survival (CHO-K1 [3]; [18]): 108
- relative survival (CHO-K1 [3]; [30]): 75.9
- relative survival (CHO-K1 [3]; [19]): 100
- relative survival (CHO-K1 [3]; [31]): 52.8
- relative survival (CHO-K1 [3]; [20]): 84.6
- relative survival (CHO-K1 [3]; concentration: 52.4 (µM), S9 metabolic activation: without S9, exposure time: 24 hours): 39.1
- relative survival (CHO-K1 [3]; [21]): 88.5
- relative survival (CHO-K1 [3]; concentration: 65.5 (µM), S9 metabolic activation: without S9, exposure time: 24 hours): 12.1
- relative survival (CHO-K1 [3]; [32]): 86.2
- relative survival (CHO-K1 [3]; [22]): 5.13
- relative survival (CHO-K1 [3]; [33]): 76.3
- relative survival (CHO-K1 [3]; [23]): 0.1
- relative survival (CHO-K1 [3]; [34]): 63.5
- relative survival (CHO-K1 [3]; concentration: 128 (µM), S9 metabolic activation: without S9, exposure time: 24 hours): 0.02
- relative survival (CHO-K1 [3]; [35]): 56.9
- relative survival (CHO-K1 [3]; concentration: 160 (µM), S9 metabolic activation: without S9, exposure time: 24 hours): 0.03
- relative survival (CHO-K1 [3]; [24]): 42
- relative survival (CHO-K1 [3]; [25]): 0.04
